Counter-ions that a name gives are not always drawn. ± gives the standard error. Hit rate of the full screen: of about 1,300 compounds, about 75 (6%) showed an effect of 50% or more. The list shows a part of the results.
System: Trichoderma virens ATCC 9645
Experiment: growth yield (OD600) relative to untreated control; higher = less growth inhibition
Details: compound concentration: 100 uM
How it was run: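 For each 96-well plate, 100 μl aliquots were prepared with Trichoderma virens ATCC 9645 spores suspended at 15,000 spores ml^−1 in potato dextrose broth. The spores had been harvested from potato dextrose agar plates after 7 days. Library compounds were present at 100 μM final, some wells also receiving a biocide at 200 ng ml^−1, and plates were grown at 30 °C with OD600 read on a BioTek EL800 at 40 h and 72 h. Reported growth, relative to the control lacking both agents, is the mean of duplicate screens.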

**Q.** Which growth yield (40 h) does the source give for `COc1ncnc(NS(=O)(=O)c2ccc(N)cc2)c1OC` [Sulfadoxine] here?
**A.** 91 ± 9.4%

**Q.** And the growth yield (72 h)?
**A.** 101 ± 2.6%

**Q.** For `COc1c(N2C[C@@H]3CCCN[C@@H]3C2)c(F)cc2c(=O)c(C(=O)O)cn(C3CC3)c12` [Moxifloxacin], which growth yield (40 h) is on record?
**A.** 93.88 ± 0.48%

**Q.** What about the growth yield (72 h) of the same compound?
**A.** 92 ± 3%

**Q.** Which results are given for `COc1ccc(C(=O)c2ccccc2)c(O)c1` [Oxybenzone]?
**A.** growth yield (40 h): 53.8 ± 4.3%; growth yield (72 h): 62.9%

**Q.** `COc1ccc(C(=O)CC(=O)c2ccc(C(C)(C)C)cc2)cc1` [Avobenzone] was tested. Which growth yield (40 h) did it give?
**A.** 88.6 ± 5.1%

**Q.** And the growth yield (72 h)?
**A.** 93.8 ± 4.8%

**Q.** For `Nc1nc2c(ncn2COCCO)c(=O)[nH]1` [Acyclovir], which growth yield (40 h) is on record?
**A.** 103.7 ± 0.48%

**Q.** And the growth yield (72 h)?
**A.** 101 ± 1.7%

**Q.** How did the growth yield (40 h) turn out when `CCCCCN(CCCCC)C(=O)C(CCC(=O)O)NC(=O)c1ccc(Cl)c(Cl)c1` (configuration not stated) [Lorglumide sodium salt] was run?
**A.** 106 ± 3.6%

**Q.** What about the growth yield (72 h) of the same compound?
**A.** 103 ± 1.6%

**Q.** How did the growth yield (40 h) turn out when `CC(C)(C)NC(=O)[C@@H]1C[C@@H]2CCCC[C@@H]2CN1C[C@@H](O)[C@H](Cc1ccccc1)NC(=O)[C@H](CC(N)=O)NC(=O)c1ccc2ccccc2n1` [Saquinavir mesylate] was run?
**A.** 110 ± 3.3%

**Q.** What about the growth yield (72 h) of the same compound?
**A.** 107 ± 3.1%

**Q.** With `CCCC1O[C@@H]2C[C@H]3[C@@H]4CCC5=CC(=O)C=C[C@]5(C)[C@H]4[C@@H](O)C[C@]3(C)[C@]2(C(=O)CO)O1` (some centres not stated) [Budesonide] as the compound, how does the growth yield (40 h) read?
**A.** 102.9 ± 0.64%

**Q.** What about the growth yield (72 h) of the same compound?
**A.** 105 ± 2.1%

**Q.** Which growth yield (40 h) does the source give for `CC(C(=O)O)c1cccc(C(=O)c2ccccc2)c1` (configuration not stated) [Ketoprofen] here?
**A.** 88.315 ± 1e-14%

**Q.** And the growth yield (72 h)?
**A.** 87.78 ± 0.52%

**Q.** Which growth yield (40 h) does the source give for `CC(C)NC[C@H](O)COc1cccc2ccccc12` [(S)-propranolol hydrochloride] here?
**A.** 106 ± 5.9%

**Q.** And the growth yield (72 h)?
**A.** 104 ± 2.3%

**Q.** What does the source list for `CN1C(=O)OC(C)(C)C1=O` [Trimethadione]?
**A.** growth yield (40 h): 106 ± 2.5%; growth yield (72 h): 102.9 ± 0.73%

**Q.** How did the growth yield (40 h) turn out when `CC(=O)CCCCn1c(=O)c2c(ncn2C)n(C)c1=O` [Pentoxifylline] was run?
**A.** 103 ± 2.1%

**Q.** What about the growth yield (72 h) of the same compound?
**A.** 104.3 ± 0.73%

**Q.** How did the growth yield (40 h) turn out when `CN(C/C=C/c1ccccc1)Cc1cccc2ccccc12` [Naftifine hydrochloride] was run?
**A.** 15.6 ± 1.6%

**Q.** And the growth yield (72 h)?
**A.** 55.5 ± 4.3%

**Q.** Which growth yield (40 h) does the source give for `OCCN1CCN(CCCN2c3ccccc3C=Cc3ccccc32)CC1` [Opipramol dihydrochloride] here?
**A.** 91.3 ± 1.1%

**Q.** What about the growth yield (72 h) of the same compound?
**A.** 98.1 ± 1.4%

**Q.** What does the source list for `CN(C)CCCSC(=N)N` [Dimaprit dihydrochloride]?
**A.** growth yield (40 h): 102 ± 3.3%; growth yield (72 h): 99.5 ± 3.2%

**Q.** Which results are given for `Cc1onc(-c2c(F)cccc2Cl)c1C(=O)N[C@@H]1C(=O)N2[C@@H]1SC(C)(C)[C@@H]2C(=O)O` [Flucloxacillin sodium]?
**A.** growth yield (40 h): 95.9 ± 2.9%; growth yield (72 h): 95.86 ± 0.84%

**Q.** `C[C@H](Cc1cc2c(c(C(N)=O)c1)N(CCCO)CC2)NCCOc1ccccc1OCC(F)(F)F` [Silodosin] was tested. Which growth yield (40 h) did it give?
**A.** 105%

**Q.** What about the growth yield (72 h) of the same compound?
**A.** 100 ± 2.3%

**Q.** `O=C(NCCN1CCOCC1)c1ccc(Cl)cc1` [Moclobemide] was tested. Which growth yield (40 h) did it give?
**A.** 102 ± 2.1%

**Q.** What about the growth yield (72 h) of the same compound?
**A.** 106 ± 2%

**Q.** Which growth yield (40 h) does the source give for `CCCCCNC(=N)N/N=C/c1c[nH]c2ccc(OC)cc12` [Tegaserod maleate] here?
**A.** 5.24 ± 0.16%

**Q.** And the growth yield (72 h)?
**A.** 3.88 ± 0.52%

**Q.** For `NS(=O)(=O)c1cc(Cl)c(Cl)c(S(N)(=O)=O)c1` [Dichlorphenamide], which growth yield (40 h) is on record?
**A.** 103 ± 2.1%

**Q.** What about the growth yield (72 h) of the same compound?
**A.** 101 ± 1.5%

**Q.** For `CCN1CCCC(OC(=O)C(c2ccccc2)c2ccccc2)C1` (configuration not stated) [Piperidolate hydrochloride], which growth yield (40 h) is on record?
**A.** 106 ± 0.79%

**Q.** What about the growth yield (72 h) of the same compound?
**A.** 105 ± 1.8%

**Q.** What does the source list for `C[C@@H]1C[C@H]2[C@@H]3C[C@H](F)C4=CC(=O)C=C[C@]4(C)[C@@]3(Cl)[C@@H](O)C[C@]2(C)[C@H]1C(=O)COC(=O)C(C)(C)C` [Clocortolone pivalate]?
**A.** growth yield (40 h): 107 ± 4%; growth yield (72 h): 100 ± 5.7%

**Q.** Which results are given for `OC(c1cc(C(F)(F)F)nc2c(C(F)(F)F)cccc12)C1CCCCN1` (configuration not stated) [Mefloquine hydrochloride]?
**A.** growth yield (40 h): 99.9 ± 1.8%; growth yield (72 h): 105 ± 3.5%

**Q.** For `CNCCCC12CCC(c3ccccc31)c1ccccc12` [Maprotiline hydrochloride], which growth yield (40 h) is on record?
**A.** 93.6 ± 2.1%

**Q.** What about the growth yield (72 h) of the same compound?
**A.** 102 ± 1.9%

**Q.** With `C[C@]12C=CC(=O)C=C1CC[C@H]1[C@@H]3C[C@@H](O)[C@](O)(C(=O)CO)[C@@]3(C)C[C@H](O)[C@@]12F` [Triamcinolone] as the compound, how does the growth yield (40 h) read?
**A.** 102 ± 1.9%

**Q.** And the growth yield (72 h)?
**A.** 101.9 ± 0.63%

**Q.** Which growth yield (40 h) does the source give for `CC1(C)O[C@@H]2C[C@H]3[C@@H]4CCC5=CC(=O)CC[C@]5(C)[C@@]4(F)[C@@H](O)C[C@]3(C)[C@]2(C(=O)CCl)O1` [Halcinonide] here?
**A.** 93.9 ± 1.8%

**Q.** What about the growth yield (72 h) of the same compound?
**A.** 96.6 ± 1.4%

**Q.** With `CCN(CC)C(=O)/C(C#N)=C/c1cc(O)c(O)c([N+](=O)[O-])c1` [Entacapone] as the compound, how does the growth yield (40 h) read?
**A.** 92.4 ± 6.7%

**Q.** And the growth yield (72 h)?
**A.** 86.6 ± 12%

**Q.** Which growth yield (40 h) does the source give for `C[C@@H](O)[C@H]1C(=O)N2C(C(=O)O)=C(S[C@@H]3CN[C@H](C(=O)N(C)C)C3)[C@H](C)[C@H]12` [Meropenem] here?
**A.** 98.6 ± 7.2%

**Q.** What about the growth yield (72 h) of the same compound?
**A.** 96.7 ± 7.1%

**Q.** What does the source list for `CC(=O)O[C@H]1C[C@@H]2CC[C@@H]3[C@H](CC[C@@]4(C)[C@H]3C[C@H]([N+]3(C)CCCCC3)[C@@H]4OC(C)=O)[C@@]2(C)C[C@@H]1N1CCCCC1` [Vecuronium bromide]?
**A.** growth yield (40 h): 103 ± 4.1%; growth yield (72 h): 98.3 ± 2.4%

**Q.** For `CCN(CC)CCOC(=O)c1ccc(N)cc1` [Procaine hydrochloride], which growth yield (40 h) is on record?
**A.** 102 ± 4.3%

**Q.** What about the growth yield (72 h) of the same compound?
**A.** 102 ± 2.3%

**Q.** How did the growth yield (40 h) turn out when `CC[C@H](C)C(=O)O[C@H]1C[C@@H](C)C=C2C=C[C@H](C)[C@H](CC[C@@H]3C[C@@H](O)CC(=O)O3)[C@H]21` [Lovastatin] was run?
**A.** 94.8 ± 5.2%

**Q.** And the growth yield (72 h)?
**A.** 94.5 ± 3.2%

From the supplement of paper PMC8007513
